# From the supplement of paper PMC4166925
# ± gives the standard deviation of the averaged measurements. In all, about 33,000 sequences were measured (“E-score (dimensionless, -0.5 to 0.5)”: median about -0.046, highest 2% from about 0.36 on). The list shows a part of the results.
# System: T1, SpTbr T-box DNA-binding domain (GST fusion)
# T1 sequence: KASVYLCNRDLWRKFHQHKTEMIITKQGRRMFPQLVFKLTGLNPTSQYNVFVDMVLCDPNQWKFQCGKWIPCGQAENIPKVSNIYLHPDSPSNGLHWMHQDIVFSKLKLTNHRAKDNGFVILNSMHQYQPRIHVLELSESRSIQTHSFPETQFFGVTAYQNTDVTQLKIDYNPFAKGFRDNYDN
# Test: PBM E-score of 8-mer (E-score (dimensionless, -0.5 to 0.5)); Tbr is Tbrain of the sea star Patiria miniata (Pm) or the sea urchin Strongylocentrotus purpuratus (Sp); higher = stronger binding preference; most listed sequences are background and not binding sites
# Conditions: the construct has about 5 more residues each side
# How it was run: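 Using the Universal PBM Analysis Suite, every ungapped 8-mer received an enrichment E-score averaged over duplicate arrays. Probe intensities came from double-stranded Universal Agilent oligonucleotide arrays incubated with 200 nM GST-fused Tbr T-box DNA-binding domain in PBS (pH 7.5). That protein was expressed in BL21 E. coli at 20 °C and purified by glutathione affinity chromatography.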
row,Sequence,PBM E-score of 8-mer
1,GATCTGCC,0.0697 ± 0.024
2,AAAGAATC,0.0635 ± 0.031
3,CCGTTCCC,0.203 ± 0.018
4,ACAGCAAT,0.122 ± 0.11
5,GAGCAGCA,-0.138 ± 0.11
6,ATACGATC,-0.105 ± 0.096
7,CGATGAAC,-0.0642 ± 0.057
8,ACAAGTGG,0.355 ± 0.012
9,CCTCGCGA,0.306 ± 0.0057
10,AGGCGGTC,-0.0226 ± 0.069
11,ATCCGTAC,-0.21 ± 0.02
12,ACATGCAA,-0.103 ± 0.0033
13,CTTAAACC,-0.14242 ± 4.9e-05
14,GACAATCA,0.00843 ± 0.089
15,CACGTGGC,0.212 ± 0.068
16,CCTGTTTA,-0.01 ± 0.077
17,CGAGTAAG,0.0168 ± 0.044
18,GGACCACC,-0.0977 ± 0.022
19,GGCCCACA,-0.0786 ± 0.008
20,CTTCAAAC,0.0597 ± 0.014
21,AGCTAGTA,-0.194 ± 0.0013
22,GCGATGAA,0.208 ± 0.0079

row,Sequence,PBM E-score of 8-mer
1,AGTATTTA,0.00333 ± 0.019
2,AGCTAGCT,0.0778 ± 0.066
3,AACACGGT,0.0832 ± 0.0046
4,GAGGAGGC,-0.0211 ± 0.011
5,CTGAAACA,-0.166 ± 0.025
6,ATGGTAGA,-0.116 ± 0.0076
7,CTTTCTTC,-0.11567 ± 4.2e-05
8,CGATGTAG,-0.15 ± 0.047
9,AACAAATT,0.0858 ± 0.044
10,CTAACGGA,0.0446 ± 0.047
11,GGAACATA,-0.155 ± 0.12
12,AGAAATAC,-0.0925 ± 0.0089
13,AGGATACG,0.173 ± 0.038
14,ATTTTACG,-0.107 ± 0.06
15,CGAATGAG,-0.019 ± 0.0085
16,ACTGACAT,0.0849 ± 0.0046
17,CCTCTAAC,-0.133 ± 0.015
18,GGCTAAAA,-0.216 ± 0.033
19,AGACGAGA,0.0548 ± 0.013
20,ATAGATCC,-0.188 ± 0.042
21,TAATAACA,0.0425 ± 0.098
22,GCCATGTA,-0.126 ± 0.062

row,Sequence,PBM E-score of 8-mer
1,ACGATCCA,-0.15 ± 0.031
2,CAGTAATC,0.115 ± 0.029
3,AGACAAAG,-0.0785 ± 0.006
4,AACTTTAT,-0.0448 ± 0.0037
5,CCACTCCG,-0.0945 ± 0.094
6,GTATTGGA,-0.221 ± 0.029
7,AAGGTTGG,-0.101 ± 0.012
8,GATTGAGA,-0.182 ± 0.03
9,CTTAGTCA,-0.135 ± 0.054
10,AAGCTACG,-0.151 ± 0.027
11,AACGATAC,0.0271 ± 0.019
12,GCATCGCA,0.0447 ± 0.0047
13,AATTAGAT,-0.19265 ± 2.1e-05
14,GCCGAAAC,-0.239 ± 0.063
15,GATAGTCC,-0.134 ± 0.004
16,GCAATGCC,-0.174 ± 0.032
17,CCACGTAA,-0.148 ± 0.027
18,ACCGGATC,-0.144 ± 0.0083
19,ATATTCAA,-0.0662 ± 0.045
20,GGACAAGA,-0.246 ± 0.059
21,CCTAAGAA,-0.0589 ± 0.034
22,GTCCCCCA,0.0463 ± 0.043

row,Sequence,PBM E-score of 8-mer
1,GCGTAGCA,0.147 ± 0.037
2,TAACCCTA,-0.15553 ± 2.1e-05
3,ACCGCCGT,-0.133 ± 0.016
4,TAGTTTAA,-0.034 ± 0.11
5,CATGCATG,-0.142 ± 0.15
6,AGTGGCCA,0.032 ± 0.031
7,AACTCATT,-0.0847 ± 0.077
8,CTAAGTAG,-0.19 ± 0.023
9,AGTACCGG,-0.341 ± 0.03
10,AGAATACC,-0.165 ± 0.0093
11,GACCGGGC,-0.0563 ± 0.018
12,CGAGACTC,0.11 ± 0.024
13,GAGGTCGC,0.185 ± 0.091
14,AATTACCA,0.0766 ± 0.05
15,GCCCATAA,-0.218 ± 0.0094
16,CGCTTACA,0.172 ± 0.0088
17,CTAACCTA,-0.0132 ± 0.03
18,GAATCGAC,0.1154 ± 0.0011
19,GAGACTGA,-0.0611 ± 0.1
20,CTGTAGCC,-0.0896 ± 0.072
21,AAGCTTCC,-0.199 ± 0.033
22,GGGCAGGA,-0.233 ± 0.0039

row,Sequence,PBM E-score of 8-mer
1,ATTATGTC,-0.17 ± 0.043
2,GCTCACCA,0.027 ± 0.076
3,TGTAGCAA,-0.154 ± 0.078
4,GCTCCCCA,-0.0846 ± 0.0095
5,CTTGGGCA,-0.0091 ± 0.04
6,ACCCTGCA,-0.158 ± 0.014
7,CAACATGG,-0.0268 ± 0.034
8,ATGGCACG,0.14 ± 0.0034
9,AACGATTA,-0.0383 ± 0.062
10,ATCGGCGA,0.00619 ± 0.065
11,ATACGTAT,0.0502 ± 0.015
12,ATAGATTC,-0.161 ± 0.021
13,GGGACGTA,-0.139 ± 0.0082
14,AAAAGTGT,0.39 ± 0.016
15,ATCGAGAC,0.0132 ± 0.042
16,AGCCATAT,-0.0579 ± 0.034
17,ATCGTGCA,-0.00957 ± 0.023
18,CAGGTTCA,0.0643 ± 0.0016
19,CTGGACTA,-0.312 ± 0.018
20,CCAAGGAG,-0.20736 ± 4.2e-05
21,CGTGTGAA,0.4643 ± 0.0031
